Out of some 310,000 compounds screened, about 14,000 (4.5%) showed an effect of 50% or more. Effects have a minus sign here. The list shows a part of the results.
target: human ether-à-go-go-related gene (hERG) potassium channel (human, UniProt Q12809); assay: primary screen, population patch clamp on CHO cells stably expressing hERG
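Further: peak tail current of the secondary pulse compared with the same well before compound.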

human ether-à-go-go-related gene (hERG) potassium channel, sequence (Q12809 whole entry, looked up): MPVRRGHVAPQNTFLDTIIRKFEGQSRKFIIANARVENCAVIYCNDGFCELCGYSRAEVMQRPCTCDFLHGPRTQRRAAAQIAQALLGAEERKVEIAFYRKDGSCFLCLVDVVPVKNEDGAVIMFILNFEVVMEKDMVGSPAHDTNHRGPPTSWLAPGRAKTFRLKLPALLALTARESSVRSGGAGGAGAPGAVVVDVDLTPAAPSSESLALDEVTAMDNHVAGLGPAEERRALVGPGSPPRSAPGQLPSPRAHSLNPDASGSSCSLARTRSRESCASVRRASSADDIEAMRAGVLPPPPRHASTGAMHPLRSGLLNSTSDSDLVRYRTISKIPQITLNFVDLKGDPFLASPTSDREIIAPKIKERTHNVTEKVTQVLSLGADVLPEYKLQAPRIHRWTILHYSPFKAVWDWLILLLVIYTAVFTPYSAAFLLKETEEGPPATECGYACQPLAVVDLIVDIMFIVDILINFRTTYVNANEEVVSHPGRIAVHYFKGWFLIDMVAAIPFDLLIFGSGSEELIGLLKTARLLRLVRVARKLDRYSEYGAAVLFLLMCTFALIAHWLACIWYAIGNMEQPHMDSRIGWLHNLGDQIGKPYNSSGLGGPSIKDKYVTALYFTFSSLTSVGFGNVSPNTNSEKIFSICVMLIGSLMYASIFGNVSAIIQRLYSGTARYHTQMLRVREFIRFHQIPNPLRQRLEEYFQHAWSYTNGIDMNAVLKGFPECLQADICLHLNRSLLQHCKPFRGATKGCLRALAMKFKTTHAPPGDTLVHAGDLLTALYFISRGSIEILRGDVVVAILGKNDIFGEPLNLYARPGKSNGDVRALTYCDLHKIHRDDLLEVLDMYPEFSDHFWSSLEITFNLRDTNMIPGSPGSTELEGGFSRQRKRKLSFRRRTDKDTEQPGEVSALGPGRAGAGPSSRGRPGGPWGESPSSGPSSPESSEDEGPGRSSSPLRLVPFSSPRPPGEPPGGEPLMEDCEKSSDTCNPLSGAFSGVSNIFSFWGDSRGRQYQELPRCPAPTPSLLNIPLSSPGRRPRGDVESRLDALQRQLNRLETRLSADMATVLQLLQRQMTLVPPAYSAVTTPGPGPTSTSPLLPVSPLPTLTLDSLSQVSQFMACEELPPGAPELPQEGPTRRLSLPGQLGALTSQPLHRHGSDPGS

SMILES	hERG current change (%, negative = inhibition) at 10uM
NC(=O)Cn1c(=O)n(Cc2ccccc2)c(=O)c2cccnc21	8.29%
O=C(COC(=O)c1ccc(S(=O)(=O)N2CCOCC2)cc1)Nc1ccccc1F	-4.7%
Cc1cc(C)n2nc(SCc3c(F)cccc3Cl)nc2n1	-5.21%
O=C(COC(=O)c1ccc(S(=O)(=O)NCc2ccco2)cc1)Nc1ccccc1OC(F)F	-1.51%
CC(=O)OCC(=O)N1N=C(c2ccc3ccccc3c2)CC1c1ccccc1 (centres unmarked)	3.79%
CC(=O)n1cc(-c2ccncc2)c2ccccc21.Cl	-11.7%
CCO[C@@H]1OC(C(=O)NC2CC2)=C[C@H](c2ccc(Br)cc2)[C@H]1CCCO	-20.2%
Cc1ccc(CC2CC(=O)N(c3nc(C)cc(C)n3)C2=O)cc1 (centres unmarked)	-12.1%
COc1ccc(N2CCN(CC(O)c3c[nH]c4ccc(OC)cc34)CC2C)cc1 (centres unmarked)	-68.1%
Br.N=c1n(CC(=O)c2ccc([N+](=O)[O-])cc2)c2ccccc2n1Cc1ccccc1Cl	-23.6%
CC1(c2ccc(OC(F)F)cc2)NC(=O)N(CC(=O)Nc2cccc(F)c2)C1=O (centres unmarked)	2.79%
Cc1ccc(NC(=O)COC(=O)C2CSC3(C)CCC(=O)N23)c(C)c1 (centres unmarked)	-3.36%
N[C@@H](C(=O)N[C@@H]1C(=O)N2C(C(=O)O)=C(Cl)CS[C@H]12)c1ccccc1	19.2%
C=CCn1c(=NC(=O)C2COc3ccccc3O2)sc2cc(S(N)(=O)=O)ccc21 (centres unmarked)	12.4%
CCOc1ccc(CN(C)C(=O)[C@H](C)NC(=O)c2ccco2)cc1OC	14.3%
CCCN(C(=O)CSc1nc2c(cnn2-c2ccccc2)c(=O)[nH]1)C1CCS(=O)(=O)C1 (centres unmarked)	1.97%
Cn1c(O)c(C(=N)COc2ccccc2)c(=O)n(C)c1=O	1.14%
CN1CCCN(Cc2ccccc2C(F)(F)F)CC1	8.06%
N#Cc1c(N2CCCCC2)nc(N)c2c(N)nc3c(c12)CC(CCl)O3 (centres unmarked)	-2.22%
Cc1ccc(S(=O)(=O)Nc2cccc3cccnc23)cc1	-12.1%
COc1ccc(C(=O)Nc2ncc3c(n2)CC(C)CC3=O)cc1 (centres unmarked)	-24%
Cc1cccc2cc(CN(Cc3nnnn3Cc3ccccc3)C3CCCC3)c(=O)[nH]c12	-22.7%
CC(C)(C)c1cc(C(=O)Nc2ccccc2)ccn1	-1.77%

Reference: PMC4336329 (PLoS ONE, 2015)
